Results on 6 molecules are retold here after patent publication US20260035431A1 (CAVALRY BIOSCIENCES, published 2026).

What all share (assay): cell-based or functional assay
One assay deals with IGFBP3 (UniProt P17936).
For the next assay, the target named is T1, IGFBP2 (UniProt P18065 37-325, limits assumed).
T1 sequence (looked up): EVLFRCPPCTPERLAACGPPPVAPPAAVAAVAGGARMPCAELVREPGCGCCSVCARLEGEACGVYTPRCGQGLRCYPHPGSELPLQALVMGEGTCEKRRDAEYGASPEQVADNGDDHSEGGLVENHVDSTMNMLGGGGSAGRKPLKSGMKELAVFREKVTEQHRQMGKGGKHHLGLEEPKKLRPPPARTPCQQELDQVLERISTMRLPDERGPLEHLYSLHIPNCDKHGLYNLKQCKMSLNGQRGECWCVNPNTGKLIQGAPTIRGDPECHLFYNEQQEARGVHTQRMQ

For assay [1], the target named is T2, IGF1 receptor (IGF1R) on DU145 cells or immortalized human meibomian gland epithelial cells (human, UniProt P08069 31-1367).
T2 sequence (P08069 31-1367): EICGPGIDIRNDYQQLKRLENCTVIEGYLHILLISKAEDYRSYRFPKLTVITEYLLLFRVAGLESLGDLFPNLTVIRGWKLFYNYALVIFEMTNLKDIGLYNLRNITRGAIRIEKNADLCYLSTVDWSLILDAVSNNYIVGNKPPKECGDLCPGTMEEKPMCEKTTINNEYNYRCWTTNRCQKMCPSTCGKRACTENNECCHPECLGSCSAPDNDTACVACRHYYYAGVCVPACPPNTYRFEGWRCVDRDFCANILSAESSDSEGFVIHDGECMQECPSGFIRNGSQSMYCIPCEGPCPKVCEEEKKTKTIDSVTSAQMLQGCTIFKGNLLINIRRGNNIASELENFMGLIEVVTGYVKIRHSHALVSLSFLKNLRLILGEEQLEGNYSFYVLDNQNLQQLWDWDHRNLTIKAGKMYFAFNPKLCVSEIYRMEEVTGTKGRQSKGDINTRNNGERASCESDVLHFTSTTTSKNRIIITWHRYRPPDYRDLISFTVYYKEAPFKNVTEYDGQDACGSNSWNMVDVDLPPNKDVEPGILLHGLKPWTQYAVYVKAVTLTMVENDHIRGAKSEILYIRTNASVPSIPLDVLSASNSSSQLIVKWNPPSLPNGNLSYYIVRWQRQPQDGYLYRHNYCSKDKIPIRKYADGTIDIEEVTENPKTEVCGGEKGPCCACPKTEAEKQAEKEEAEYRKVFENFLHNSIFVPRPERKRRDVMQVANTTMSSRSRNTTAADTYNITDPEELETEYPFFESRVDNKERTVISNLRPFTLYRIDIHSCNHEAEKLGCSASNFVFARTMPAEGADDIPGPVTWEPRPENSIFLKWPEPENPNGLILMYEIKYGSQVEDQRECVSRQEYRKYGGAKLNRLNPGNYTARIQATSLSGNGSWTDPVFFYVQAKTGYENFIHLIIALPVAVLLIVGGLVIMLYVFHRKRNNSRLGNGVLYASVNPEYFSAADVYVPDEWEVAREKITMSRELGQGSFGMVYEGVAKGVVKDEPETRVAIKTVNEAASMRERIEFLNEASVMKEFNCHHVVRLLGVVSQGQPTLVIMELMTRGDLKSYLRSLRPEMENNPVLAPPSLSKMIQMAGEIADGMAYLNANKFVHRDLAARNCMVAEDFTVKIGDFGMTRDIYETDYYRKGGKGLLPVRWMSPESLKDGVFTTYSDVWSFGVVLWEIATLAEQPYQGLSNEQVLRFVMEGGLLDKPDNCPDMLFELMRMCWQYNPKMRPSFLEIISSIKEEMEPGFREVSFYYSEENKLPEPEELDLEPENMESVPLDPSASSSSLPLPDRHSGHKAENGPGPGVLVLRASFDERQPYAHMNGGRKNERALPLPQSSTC
In assay [2] the target is T2, IGF1 receptor (IGF1R) on DU145 cells or …. This is another data set of the same source.

Sequence of IGFBP3 (P17936 28-291 limits assumed): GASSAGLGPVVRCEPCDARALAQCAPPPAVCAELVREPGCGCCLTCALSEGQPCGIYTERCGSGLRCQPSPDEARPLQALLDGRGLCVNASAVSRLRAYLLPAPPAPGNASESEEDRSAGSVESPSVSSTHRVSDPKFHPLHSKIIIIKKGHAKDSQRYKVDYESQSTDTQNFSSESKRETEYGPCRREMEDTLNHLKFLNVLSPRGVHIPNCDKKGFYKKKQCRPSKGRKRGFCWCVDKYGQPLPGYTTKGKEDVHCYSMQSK

B1: IGF-1 E3R D12A (ligand)
chain: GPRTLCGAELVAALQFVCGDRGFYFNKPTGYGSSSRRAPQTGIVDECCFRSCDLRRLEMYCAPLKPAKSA
In the case of B1, the “% Activity compared to no IGFBP, 4x BP3” value in the assay with IGFBP3 is 53%. Besides, the “% Activity compared to no IGFBP, 4x BP2” value with IGFBP2 came out at 107%. Moreover, the “EC50 (nM), P-AKT in DU145 cells” value in assay [1] was 24.5 nM.

B2: IGF-1 E3R F49L (ligand)
chain: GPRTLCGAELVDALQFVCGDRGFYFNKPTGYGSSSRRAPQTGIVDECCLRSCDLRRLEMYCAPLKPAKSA
B2: the “% Activity compared to no IGFBP, 4x BP3” value with IGFBP3 came to 154%. Moreover, in the assay with IGFBP2, the “% Activity compared to no IGFBP, 4x BP2” value was determined as 166%. Moreover, the “EC50 (nM), P-AKT in DU145 cells” value in assay [1] amounted to 5.4 nM. The “EC50, AKT S473 phosphorylation in DU145 cells” value in assay [2] stood at 15.8 nM.

B3: IGF-1 E3R (ligand)
chain: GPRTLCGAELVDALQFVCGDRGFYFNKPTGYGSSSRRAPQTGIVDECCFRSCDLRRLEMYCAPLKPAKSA
As for B3, the “% Activity compared to no IGFBP, 4x BP3” value with IGFBP3 was 25%. Also, the “% Activity compared to no IGFBP, 4x BP2” value in the assay with IGFBP2 was 69%. In assay [1], the “EC50 (nM), P-AKT in DU145 cells” value is 4.9 nM. Besides, the “EC50, AKT S473 phosphorylation in DU145 cells” value in assay [2] is 8.6 nM.

B4: IGF-1 F49L (ligand)
chain: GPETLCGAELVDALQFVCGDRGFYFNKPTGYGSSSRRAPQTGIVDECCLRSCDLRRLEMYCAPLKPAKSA
Regarding B4, in the assay with IGFBP3, the “% Activity compared to no IGFBP, 4x BP3” value is 10%. Besides, the “% Activity compared to no IGFBP, 4x BP2” value with IGFBP2 was determined as 130%. Besides, the “EC50 (nM), P-AKT in DU145 cells” value in assay [1] came out at 7.5 nM.

B5: IGF-1 E3R L54A (ligand)
chain: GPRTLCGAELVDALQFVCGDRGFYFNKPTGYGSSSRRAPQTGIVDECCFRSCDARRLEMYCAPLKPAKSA
B5: the “% Activity compared to no IGFBP, 4x BP3” value with IGFBP3 amounted to 55%. Moreover, the “% Activity compared to no IGFBP, 4x BP2” value with IGFBP2 came to 157%. The “EC50 (nM), P-AKT in DU145 cells” value in assay [1] amounted to 26.3 nM.

B6: IGF-1 E3R D20A (ligand)
chain: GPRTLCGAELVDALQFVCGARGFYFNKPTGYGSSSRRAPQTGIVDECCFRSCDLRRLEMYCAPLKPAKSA
For B6, the “% Activity compared to no IGFBP, 4x BP3” value with IGFBP3 amounted to 39%. Further, the “% Activity compared to no IGFBP, 4x BP2” value with IGFBP2 stood at 106%. For the same molecule, the “EC50 (nM), P-AKT in DU145 cells” value in assay [1] amounted to 10.3 nM.
